# Measured values as given in the supplement of paper PMC10502849.
# Where a name gives a salt, the structure may show the parent alone. The list shows a part of the results. Most values come without repeats; read them as rough.
# How the values were obtained:
# [1] = tested on: H9 teratoma-derived LAM model cells, TSC2-/-; assay: percent SyTOX+ dead cells; higher = more cytotoxic; conditions: 5 µM, treatment time 72 h, culture: 3D hyaluronic acid hydrogel
# [2] = tested on: H9 teratoma-derived LAM model cells, WT; assay: percent SyTOX+ dead cells; higher = more cytotoxic; conditions: 5 µM, treatment time 72 h, culture: 3D hyaluronic acid hydrogel, genotype: WT
# [3] = tested on: H9 teratoma-derived LAM model cells, TSC2-/-; assay: percent of cells invaded past median invasion distance of vehicle control; LAM is lymphangioleiomyomatosis; the cells come from teratomas of the human stem cell line H9; higher = more invasion; extreme values may be limits of the assay; conditions: 5 µM, treatment time 72 h, culture: 3D hyaluronic acid hydrogel
# [4] = tested on: H9 teratoma-derived LAM model cells, WT; assay: as above; conditions: 5 µM, treatment time 72 h, culture: 3D hyaluronic acid hydrogel, genotype: WT
# 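For percent SyTOX+ dead cells in this document: cells seeded atop a hyaluronic acid gel crosslinked via MMP-cleavable peptides, containing vitronectin peptides and methylcellulose, imaged live by high-content microscopy with automated analysis, one technical replicate per compound.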
# 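For percent of cells invaded past median invasion distance of vehicle control in this document: live cells imaged by high content microscopy and scored with in-house automated image analysis, one technical replicate per compound in each genotype and rapamycin condition.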
SMILES,percent SyTOX+ dead cells ([1]; rapamycin 0 nM) [%],percent SyTOX+ dead cells ([1]; rapamycin 20 nM) [%],percent SyTOX+ dead cells ([2]; rapamycin 0 nM) [%],percent SyTOX+ dead cells ([2]; rapamycin 20 nM) [%],percent ([3]; rapamycin 0 nM) [%],percent ([3]; rapamycin 20 nM) [%],percent ([4]; rapamycin 0 nM) [%],percent ([4]; rapamycin 20 nM) [%]
CN1CCN(CCOc2cc(OC3CCOCC3)c3c(Nc4c(Cl)ccc5c4OCO5)ncnc3c2)CC1,9.43,28,33.3,46.3,0,0,4.76,1.05
CN(C)CC(=O)Nc1ccc2[nH]c(=O)c3ccccc3c2c1 [PJ-34 hydrochloride hydrate],13.1,13.1,10.7,12.2,73.4,48.3,69.9,66.3
"Cn1c(C2=C(c3c4n(c5ccccc35)CCC(CN)C4)C(=O)NC2=O)cc2ccccc21 (stereo unspecified) [Bisindoylmaleimide X, HCl salt]",96,94.5,94.2,92,30.3,34.1,7.03,16.9
O=S(=O)(c1cccc2c(Cl)cccc12)N1CCCNCC1 [ML 9 hydrochloride],12.3,15.1,13.4,18.8,29.2,14.4,32.1,26.1
CCN(CC)CCCCN1c2ccccc2Oc2ccc(Cl)cc21 [10-DEBC hydrochloride],15,8.06,13.8,18.3,30.5,62.5,23.9,56.6
Cn1cc(/C=C/C(=O)c2cccc(F)c2)cc1/C=C/C(=O)NO,21.4,43.5,39.9,26.8,71,40.3,25.3,35
CC(C)(N)c1ccc(-c2nc3ccccc3nc2-c2ccccc2)cc1,8.03,11.2,15.4,9.11,39,28.4,26.6,40.9
O=C(CN1C2=NCCN2c2ccccc21)c1ccc(-c2ccccc2)cc1,11.7,8.92,21.4,14.7,64.9,58.6,58.9,53.9
NC(=O)c1ccc(N(C(N)=O)c2c(F)cccc2F)nc1-c1ccc(F)cc1F,10.3,12.1,28.2,16.2,34.5,74.6,23,27.8
CCN(CC)Cc1cc(Cl)c2cccnc2c1O,26.5,31.2,21.1,28.4,9.31,1.83,21.4,9.57
N#CC(c1ccnc(NCCc2cccnc2)n1)c1nc2ccccc2s1 (stereo unspecified),13,14.4,11,9.83,6.51,41.3,13.8,37.2
COc1cc2ncn(-c3cc(OCc4ccccc4C(F)(F)F)c(C(N)=O)s3)c2cc1OC,9.84,14.5,5.5,8.57,7.87,17.3,9.63,20.6
O=C(Nc1cccc(Nc2ncc(Br)c(NCCc3cnc[nH]3)n2)c1)N1CCCC1,23.9,23,56.3,43.9,14.7,10.7,1.75,2.93
COc1ccc(C(=O)Nc2sc3c(c2C(N)=O)CCCC3)cc1OC,9.41,14.9,7.36,11.6,19.7,9.06,14.7,21.2
C=CC(=O)Nc1cccc(Oc2nc(Nc3ccc(N4CCN(C)CC4)cc3)ncc2Cl)c1,46.3,36.8,63.4,59.9,38,0.58,0.3,0
C[C@@H](N)c1ccc(C(=O)Nc2ccnc3[nH]ccc23)cc1,5.31,9.2,28,21.1,88.4,4.6,59.6,0

SMILES,percent SyTOX+ dead cells ([1]; rapamycin 0 nM) [%],percent SyTOX+ dead cells ([1]; rapamycin 20 nM) [%],percent SyTOX+ dead cells ([2]; rapamycin 0 nM) [%],percent SyTOX+ dead cells ([2]; rapamycin 20 nM) [%],percent ([3]; rapamycin 0 nM) [%],percent ([3]; rapamycin 20 nM) [%],percent ([4]; rapamycin 0 nM) [%],percent ([4]; rapamycin 20 nM) [%]
CC[C@]1(O)C[C@H]2CN(CCc3c([nH]c4ccccc34)[C@@](C(=O)OC)(c3cc4c(cc3OC)N(C=O)[C@H]3[C@@](O)(C(=O)OC)[C@H](OC(C)=O)[C@]5(CC)C=CCN6CC[C@]43[C@@H]65)C2)C1,36.1,34.1,33.1,30.8,26.4,29.4,24.4,53
O=C1NC(=O)/C(=C/c2ccc3c(c2)OC(F)(F)O3)S1,12.4,11,24.5,22,15.8,40.4,31.3,20.8
O=C(COc1cccc2c(=O)[nH]ccc12)c1ccccc1,2.19,3,4.47,7.56,54,38.2,45.4,46.2
COc1ccc(OC)c2c(=S)c3ccccc3[nH]c12,11.2,15.1,8.1,9.05,66.8,66.3,61,35.8
Oc1ccc(-c2nc(-c3ccc(F)cc3)c(-c3ccncc3)[nH]2)cc1,15.8,5.28,10.6,18.6,16.2,31.7,38.2,29.2
C=CCc1cccc(/C=N/NC(=O)CN2CCN(Cc3ccccc3)CC2)c1O,16.7,13.5,17.3,13.1,46.2,36.3,64.5,29.9
CS(=O)(=O)c1ccc(-c2cnc(N)c(C(=O)Nc3ccccc3)n2)cc1,1.54,8.55,6.76,5.64,48.9,39.5,59.7,12.4
c1cncc(CN2CCC(n3ncc4c(N5CCOCC5)nc(-c5ccc6[nH]ccc6c5)nc43)CC2)c1,46.1,14.3,67.4,65.6,6.74,7.79,0,5.96
COc1cc2c(cc1-c1c(C)noc1C)ncc1[nH]c(=O)n([C@H](C)c3ccccn3)c12,14.1,13.2,21,19.3,77.1,74.1,67.2,58.1
Fc1cc(-c2cccc3ncc(-c4cnn(C5CCNCC5)c4)nc23)cc(F)c1CN1CCOCC1,12.9,4.3,17,12.4,79.5,69.3,64.5,47.2
Cn1c(Nc2ccc(C(F)(F)F)cc2)nc2cc(Oc3ccnc(-c4ncc(C(F)(F)F)[nH]4)c3)ccc21,11.8,5.68,21.8,31.9,24.5,55.5,7.25,1.95
COc1cccc2cc(-c3nc([C@H]4CC[C@H](C(=O)O)CC4)n4ncnc(N)c34)[nH]c12 [OSI-027 hydrochloride],2.82,2.03,16.3,10.8,55.4,90.2,46.7,65.3
CCCCCCCC(=O)OCCOC(=O)CCCCCCC [Dioctanoylglycol],7.58,10.2,6.23,12.5,16.9,11.7,43.6,11.1
"O=C(/C=C/c1ccc(O)cc1)c1ccc(O)cc1O [Isoliquiritigenin, ISLQ]",29,47.5,29.9,48.6,0.3,0.38,0,0
CS(=O)(=O)CCNCc1nc(-c2ccc3ncnc(Nc4ccc(OCc5cccc(F)c5)c(Cl)c4)c3c2)cs1,10.7,10.4,7.26,6.02,55.3,13.1,39.7,18.7
"COc1cc2nccc(Oc3ccc(NC(=O)Nc4cc(C)on4)c(Cl)c3)c2cc1OC [AV951, KRN951, Tivozanib]",34.3,35.9,66.9,60.8,39.4,12.5,0.57,1.18
